The values that follow come from the supplement of paper PMC10338343.

± gives the standard deviation. In all, about 5,500 sequences were measured (“pre-steady-state target cleavage rate”: median about 0.1, highest 2% from about 0.64 on). This is a selection; strong and weak results do not stand in their true shares.

The test relates to MIWI (PIWIL1) piRISC loaded with piRNA #2 (30 nt). The experiment in a line: pre-steady-state target cleavage rate (min^-1); MIWI and MILI are mouse PIWI proteins and EfPiwi is from a freshwater sponge; tags in brackets are library labels; higher = faster piRNA-guided slicing of the target. The following applies: guide: piRNA #2 5'p-UUAGGUAACCCAGUAGAUCCAGAGGAAUUC; auxiliary factor: 500 nM mouse GTSF1. The gist of the method: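 Cleave-'n-Seq: 1 nM active affinity-purified piRISC with one synthetic guide and 0.1 nM transcribed, DNA-blocked target RNA library were mixed, with or without 500 nM GTSF1 partner protein, in HEPES–potassium acetate buffer at 33 °C for 0–8 or 0–960 min. Uncleaved targets were sequenced and normalised to depth and to weakly complementary targets, three trials were pooled, and k3 was capped at 0.0001 min^-1. The pre-steady-state cleavage rate was fitted […].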
With CUUAACCUCUGGAUCUAGUGGGUUACCAAA, the “pre-steady-state target cleavage rate” value was determined as 0.0597 ± 0.0073.
The result for CUUAAGGAGUGAUCUACUGGGUUACCUAA reads 0.00412 ± 0.0023; that for GAAUUCCUCUGGAUCUACUGGGAUAGCUAA, 0.195 ± 0.038.
Take CUUAAGGUCUGGAUGUACUGGGUUAGCUAA: the “pre-steady-state target cleavage rate” value stood at 0.0622 ± 0.034.
CUUAAGGUCUGGAUCUACUGGGUUAUCCUAA: the “pre-steady-state target cleavage rate” value stood at 0.305 ± 0.034.
With CUUAAGCUCACCAUCUACUGGGUUACCUAA the figure was 0.0189 ± 0.0049; with CAUUUCCUCUGGAUCUACUGGGUUACCUUA, 0.441 ± 0.066.
With CUUAAGGAGUGGAUCUACUGGCUUACCUAA the figure was 0.0208 ± 0.012; with CUUAUCCAUCUGGAUCUACUGGGUUACCUAA, 0.508 ± 0.051; with CUUAAGGUCUGGAUCUACUGGGUUACGUAA, 0.462 ± 0.041.
With CUUAAGGAGAGGAUCUACUGGGUUACCUUAA the figure was 0.00691 ± 0.0049; with CUUAUCCUCUGGAUCUAGUGGGUUAGCUAA, 0.0415 ± 0.011.
Regarding CUUAUCCUCUGGAACUAGUGGGUUACCUAA, the “pre-steady-state target cleavage rate” value is 0.167 ± 0.021.
With CUUAAGGACCUGGAUCUACUGGGUUACCUAA the figure was 0.0827 ± 0.017; with CUUAAGGACUGGAUCUACUGGGUUACCAA, 0.019 ± 0.018; with CUAUUCUUCUGGAUCUACUGGGUUACCUAA, 0.434 ± 0.035.
As to CUUAUCCUCUGGUACUACUGGGUUACCUAA, the “pre-steady-state target cleavage rate” value turned out to be 0.364 ± 0.044.
The result for CUUAAGGUCUGGAUCUAGUGGGUUACCAAA reads 0.0464 ± 0.011.
With CUUAAGGAGAGCAUCUACUGGGUUACGUAA the figure was 0.00371 ± 0.0022; with GAAUACCUCUGGAUCUUCUGGGUUACCUAA, 0.273 ± 0.048; with CUUUUCCUCUGGAUCUAGUCGGUUACCUAA, 0.00647 ± 0.0032.
The result for CUUAUCCUUCUGGAUCUACUGGGUUACCUAA reads 0.499 ± 0.052.
As to CUUUUCCUCUGGAAGAACUGGGUUACCUAA, the “pre-steady-state target cleavage rate” value turned out to be 0.121 ± 0.031.
The result for CAUUUCCUCUGGAUGUACUGGGUUACCUAA reads 0.514 ± 0.056.
With CUUUACCUCUGGAUCUACUGGGUUACCUUA the figure was 0.167 ± 0.025; with GAAUUCCUCUCGAACUACUGGGUUACCUAA, 0.47 ± 0.046.
In the case of CUUAAGCUCUGGAUCAACUGCGUUACCUAA, the “pre-steady-state target cleavage rate” value came out at 0.206 ± 0.027.
With GAAUACCUCUGGAUCUACAGGGUUACCUAA the figure was 0.18 ± 0.026.
Take CUUAAGCUCGUGGAUCUACUGGGUUACCUAA: the “pre-steady-state target cleavage rate” value came out at 0.0949 ± 0.019.
The result for CUAUUCCUCUGGAUCUACAGGCUUACCUAA reads 0.0271 ± 0.008; that for CUUAUCCUCUGGAUCUUCAGGGUUACCUAA, 0.129 ± 0.017; that for CUUAUCCUCUGGAUCUAGUGGGUUACCUAA, 0.196 ± 0.023.
The result for CUAUACCUCUGGAUCUACUGGGUUACCUAA reads 0.544 ± 0.084; that for CUUAAGCUCUGGAUCUACUCGGUUACGUAA, 0.0999 ± 0.022.
The result for CAAUUCCUCUGGUUCUACUGGGUUAGCUAA reads 0.371 ± 0.041; that for CUUAACCAGUGGAUCUACUGGGUUACCUAA, 0.352 ± 0.032.
CUUUUCCUCUGGAACUACUGCGUUACCUAA: the “pre-steady-state target cleavage rate” value was found to be 0.369 ± 0.042.
The result for CAAUUCCUCUGGACUACUGGGUUACCUAA reads 0.296 ± 0.043; that for GAAUACCUCUGGAUCUACUGGCUUACCUAA, 0.107 ± 0.014; that for CUUUUCCUCUGAUCUACUGGGUUACCUAA, 0.304 ± 0.036.
The result for CUUAAGGAGACCUAGAUGACGUGUUACCUAA reads less than 0.0001.
For CUUAAGGUCUGGAUCUUCUGCGUUACCUAA, the “pre-steady-state target cleavage rate” value stood at 0.104 ± 0.032.
The result for CUUAAGGACUCGAUCUACAGGGUUACCUAA reads 0.00845 ± 0.0026.
With CAAUUCCUCUGGAUCUACUGGGUUAGCAAA the figure was 0.151 ± 0.054; with CUUAAGGAGUGGAUCUACUGGGUUUCCUAA, 0.0187 ± 0.0043.
With CUAUUCCUCUGGAUGCUACUGGGUUACCUAA the figure was 0.335 ± 0.033; with CAAUUCCUCUCGAUCUACUGGGUUACCUUA, 0.69 ± 0.056.
Take CUAUUCCUCUGGAUGUACUGGGUUACGUAA: the “pre-steady-state target cleavage rate” value came out at 0.533 ± 0.042.
Regarding CUUAAGCUCAGGAUCUACUGGCUUACCUAA, the “pre-steady-state target cleavage rate” value was 0.056 ± 0.015.
As to CUUAAGCACUGGAUCUACUGGCUUACCUAA, the “pre-steady-state target cleavage rate” value amounted to 0.0537 ± 0.013.
With CAAUUCCUCUGGAUCUACUGGGUAACCAAA the figure was 0.177 ± 0.056; with CUUUACCUCUGGAACUACUGGGUUACCUAA, 0.41 ± 0.033; with GUAUUCCUCUGGAUCUACUGGGUUACCAAA, 0.178 ± 0.047.
With CUUAACCUCUGGAUACUACUGGGUUACCUAA the figure was 0.21 ± 0.029; with CUAUACCUCUGGAUCUACUGGGAUACCUAA, 0.299 ± 0.037; with CUUAAGGUCUGGAUCUACUGGGAUACCAAA, 0.0398 ± 0.016.
With CUUAAGCUCAUGGAUCUACUGGGUUACCUAA the figure was 0.166 ± 0.019; with CUAUUCCUGUGGAUCUACUGGGUUACGUAA, 0.47 ± 0.052.
Regarding CUAUUCCUCUGCUACUACUGGGUUACCUAA, the “pre-steady-state target cleavage rate” value was determined as 0.451 ± 0.039.
The result for CUUAUCCUCUGGAUCUACUGGGUUACGAAA reads 0.253 ± 0.05; that for GAAAUCGUCUGGAUCUACUGGGUUACCUAA, 0.417 ± 0.064.
The result for GAAUUCCUCUGGAUCUACUGCGAUACCUAA reads 0.19 ± 0.044; that for CUUAAGGACUGGAUCUACUGGGUAUACCUAA, 0.082 ± 0.05; that for CUUAAGGAGACCUUCUACUGGCGUUACCUAA, 0.0131 ± 0.005.
As for CUUAAGCUCUGGAUCUACUGGGUAUACCUAA, the “pre-steady-state target cleavage rate” value turned out to be 0.111 ± 0.023.
With CUUAAGGUCUGAAUCUACUGGGUUACCUAA the figure was 0.111 ± 0.016.
The result for CUUAAGGACUCGAUCUACUGGGUUACGUAA reads 0.13 ± 0.034.
The result for CUUUUCCUCUGGAUCUUGAGGGUUACCUAA reads 0.00876 ± 0.0062.
Take CUUAUCCUCUGCAUGUACUGGGUUACCUAA: the “pre-steady-state target cleavage rate” value came out at 0.383 ± 0.027.
Consider CUAUACCACUGGAUCUACUGGGUUACCUAA, for which the “pre-steady-state target cleavage rate” value was found to be 0.506 ± 0.047.
With CUUAAGCUCUUGAUCUACUGGGUUACCUAA the figure was 0.273 ± 0.03; with GAAUUCCUCUGGAUCUACUGGGUUACCCUAA, 0.269 ± 0.078.
The result for CAAUUCCUCUGGAUCUUCUGGGAUACCUAA reads 0.226 ± 0.031.
The result for CAAUUCCUCUGGAUGUUCUGGGUUACCUAA reads 0.389 ± 0.039; that for CUUAACCUCUGCAUCUAGUGGGUUACCUAA, 0.147 ± 0.013.
As to CUUAACCUCUGGAUCUAGAGGGUUACCUAA, the “pre-steady-state target cleavage rate” value was found to be 0.0212 ± 0.0044.
With GAAAUCCUCUGGAUCUACUCGGUUACCUAA the figure was 0.0697 ± 0.016.
With CUUAAGCCUCUGGAUCUACUGGGUUACCUAA the figure was 0.169 ± 0.026; with CUUAUCCUCUGGAUCUACAGGGUUAGCUAA, 0.115 ± 0.023; with CUUUUCCUGUGGAUCUACUGGGUUACCAAA, 0.223 ± 0.04.
With GAAUUCCUCUGGAUGUACUGCGUUACCUAA the figure was 0.487 ± 0.069; with “CUUAAGGUCUGGAUCUACUGGGUUACCUAA [g2:g23:cont:t1A]”, 0.236 ± 0.031; with CUUAUCCUCUGAGAUCUACUGGGUUACCUAA, 0.33 ± 0.024.
Consider CAAAUCCUCUGGAUCUACUGGGUAACCUAA, for which the “pre-steady-state target cleavage rate” value was 0.23 ± 0.036.
The result for CUUAAGGAGUGGGUCUACUGGGUUACCUAA reads 0.0641 ± 0.01; that for CUUAACCACUGGAUCUACUGCGUUACCUAA, 0.317 ± 0.037.
The result for CAAUUCCACUGGAACUACUGGGUUACCUAA reads 0.408 ± 0.042.
The result for CUUAACCUCUGGAUCUACAGGGUUACGUAA reads 0.134 ± 0.017; that for CUAUUUCCUCUGGAUCUACUGGGUUACCUAA, 0.385 ± 0.054; that for CUUAAGGAGACGAUCUACACCGUUACCUAA, 0.00447 ± 0.0029.
In the case of CUUAAGGACUGGAUCAACUGGGUUACCUUA, the “pre-steady-state target cleavage rate” value was 0.0459 ± 0.035.
With GAAUUGCUCUGGAUCUACUGGCUUACCUAA the figure was 0.0382 ± 0.014.
